Reference: PubChem BioAssay AID504937 (National Center for Advancing Translational Sciences (NCATS), 2011)
The campaign covered roughly 340,000 compounds. About 20 (0.006%) were called active. This list was built around the results that the source calls inconclusive (neither active nor inactive); the mix of calls is not that of the screen. Calls follow the shape of the dose curve; as a rule, active = well fitted inhibition curve with a large enough effect; inconclusive = small, poorly fitted or top-dose-only effect; inactive = no such curve, though single readings can be large or run the other way. A potency beside an inconclusive call is a rough fit, not a confirmed value.

These compounds were tested against Sphingomyelin phosphodiesterase (Homo sapiens) (UniProt P17405) (assay: Inhibitors of Secretory Acid Sphingomyelinase (S-ASM): qHTS). Conditions: placental ASM, HMU-PC fluorogenic substrate (series up to 57.5 µM), 60 min; activity change, negative = inhibition: at the top concentration.
Method in brief: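 Steps: dispense placental human ASM, pin compound, wait 10 min at room temperature, add HMU-PC0 substrate at 9 uM final, incubate 60 min at 37 °C, add stop solution raising pH to 10, read fluorescence.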
Potency is read from the fitted curve at half-maximal effect; tags tell the direction and shape of the fitted curve.

Chain of UniProt P17405 (P17405 whole entry, looked up): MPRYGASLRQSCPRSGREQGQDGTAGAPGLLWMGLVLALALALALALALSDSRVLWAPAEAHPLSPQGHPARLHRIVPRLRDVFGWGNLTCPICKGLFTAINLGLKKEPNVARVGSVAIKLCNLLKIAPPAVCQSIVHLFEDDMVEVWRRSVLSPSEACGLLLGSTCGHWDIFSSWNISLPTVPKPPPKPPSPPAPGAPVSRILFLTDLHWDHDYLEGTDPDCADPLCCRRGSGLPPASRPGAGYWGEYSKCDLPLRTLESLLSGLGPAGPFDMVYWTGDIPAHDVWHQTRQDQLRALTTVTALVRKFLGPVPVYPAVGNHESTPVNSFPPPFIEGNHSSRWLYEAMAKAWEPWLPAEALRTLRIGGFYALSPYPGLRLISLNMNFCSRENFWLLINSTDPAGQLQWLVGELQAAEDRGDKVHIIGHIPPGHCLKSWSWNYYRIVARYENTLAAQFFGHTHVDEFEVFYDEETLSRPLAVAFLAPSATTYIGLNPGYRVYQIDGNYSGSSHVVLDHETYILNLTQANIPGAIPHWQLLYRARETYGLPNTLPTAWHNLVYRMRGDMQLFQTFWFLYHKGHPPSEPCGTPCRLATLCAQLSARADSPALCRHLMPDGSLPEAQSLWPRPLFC

Row | SMILES | Potency | activity change, negative = inhibition
1 | Cc1cc(N/N=C/c2ccc(Cl)cc2)nc(NCc2ccccc2)n1 | inconclusive: 89.1 µM [inhibitor, single point] | 
2 | Fc1ccc(Cl)cc1/C=N/n1cnnc1SCc1ccccc1 | inconclusive: 708 µM [inhibitor, partial curve, poor fit] | 
3 | CC(C)(C)c1cc(NC(=O)Nc2ccc(Br)cc2Cl)no1 | inconclusive: 178 µM [inhibitor, partial curve, poor fit] | 
4 | CC(=O)N(C)c1ccc(N2CCOCC2)c2c1C(=O)c1ccccc1C2=O |  | inactive: -5.08%
5 | COc1ccc2cc(/C=C3\SC(=S)NC3=O)c(N3CCOCC3)nc2c1 |  | inactive: -12.5%
6 | C=CCCC(=O)Nc1nc(C)c(-c2csc(Nc3ccc(Cl)cc3)n2)s1 | inconclusive: 126 µM [inhibitor, partial curve, poor fit] | 
7 | Cc1cc(-c2nnc3n2N=C(c2ccc(-c4ccccc4)cc2)CS3)n[nH]1 | inconclusive: 89.1 µM [inhibitor, single point] | 
8 | CCN(CC)S(=O)(=O)c1cc(NC(=O)CO/N=C(\N)c2ccccc2Cl)ccc1C |  | inactive: 0.85%
9 | CCCCCCCCCCS(=O)(=O)N/N=C/c1ccc([N+](=O)[O-])cc1 | inconclusive: 63.1 µM [inhibitor, partial curve] | 
10 | CCCCc1nc2sc3c(SCCN(C)C)ncnc3c2c2c1CCC2 | inconclusive: 398 µM [inhibitor, partial curve, poor fit] | 
11 | COc1ccc(N(C(=O)Cn2nnc(-c3ccc(Cl)cc3)n2)C(C(=O)NCC2CCCO2)c2ccc(C)cc2)cc1 (stereo not given) |  | inactive: 3.54%
12 | O=C1NNC(c2ccccc2)=N/C1=C\c1ccco1 |  | inactive: -0.0283%
13 | Cc1ccc(/C([O-])=C(/C(=S)NCc2ccccc2)[n+]2ccccc2)cc1[N+](=O)[O-] |  | inactive: -3.18%
14 | COC(=O)c1cc(NC(=O)c2cc(-c3ccc(C(F)(F)F)cc3)oc2C(F)(F)F)ccc1N1CCOCC1 | inconclusive: 89.1 µM [inhibitor, partial curve, poor fit] | 
15 | O=C(NNc1ccc(C(F)(F)F)cc1[N+](=O)[O-])c1ccc(NS(=O)(=O)c2ccc(F)cc2)cc1 | inconclusive: 100 µM [inhibitor, partial curve, poor fit] | 
16 | COc1sc(SC)cc1/C=N/NC(=O)c1ccncc1 |  | inactive: 3.43%
17 | CCOC(=O)C1=C(C)NC(C)=C(C(=O)OCC)C1C(=O)OCC(=O)N1c2ccccc2CC1C (stereo not given) | inactive | 
18 | CCc1cccc(NC2c3ccccc3C(=O)N2c2ccc(C)cn2)c1 (stereo not given) | inconclusive: 316 µM [inhibitor, partial curve, poor fit] | 
19 | C=CCN1C(=O)/C(=C/c2ccc(O)c(OC)c2)S/C1=N/c1nccs1 | inconclusive: 112 µM [inhibitor, partial curve, poor fit] | 
20 | CCCCn1c(=N)n(CC(O)COc2ccc(C)cc2)c2ccccc21 (stereo not given) |  | inactive: -2.26%
21 | C=CCC[C@H](Cc1ccc(F)cc1)C(=O)OC[C@@H](NC(=O)[C@@H](CC=C)CC(=O)N[C@@H](CO)Cc1ccccc1)C(C)(C)C |  | inactive: -5.64%
22 | O=C(Nc1nnc(C2CC2)s1)C1COc2ccccc2O1 (stereo not given) |  | inactive: 1.66%

Row | SMILES | Potency | activity change, negative = inhibition
23 | CNC(=O)c1ccsc1NC(=O)c1ccc2c(c1)CCCC2 | inconclusive: 200 µM [inhibitor, partial curve, poor fit] | 
24 | O=C(CC1SC(=Nc2ccccc2)N(CCc2c[nH]c3ccccc23)C1=O)Nc1ccccc1F (stereo not given) | inconclusive: 63.1 µM [inhibitor, partial curve] | 
25 | Cc1cc(=O)c2c(o1)C(=O)c1occc1C2=O |  | inactive: -0.618%
26 | CCN(CC)c1ccc(C(=O)OCC(=O)N2CCCC2)cc1 |  | inactive: -0.627%
27 | Cn1c(N=NC(=O)c2ccccc2)c(O)c2ccccc21 |  | inactive: -5.99%
28 | COC(C[C@@H]1O[C@H]1C(=O)COCc1ccccc1)OC |  | inactive: 1.09%
29 | C[C@@H]1CN([C@H](C)CO)C(=O)c2cc(NC(=O)Nc3ccc(C(F)(F)F)cc3)ccc2O[C@H]1CN(C)Cc1ccc(Cl)c(Cl)c1 | inconclusive: 112 µM [inhibitor, partial curve, poor fit] | 
30 | CC(C)(C)CC(C)(C)c1ccc(OCCOCC[N+](C)(C)Cc2ccccc2)cc1 | inconclusive: 112 µM [inhibitor, partial curve, poor fit] | 
31 | CCOc1ccccc1NC(=O)C(Sc1nnnn1C)c1ccccc1 (stereo not given) | inconclusive: 63.1 µM [inhibitor, single point] | 
32 | COc1cc(/C=C/C(=O)c2ccc3c(c2)OCO3)cc(Cl)c1O | inconclusive: 282 µM [inhibitor, partial curve, poor fit] | 
33 | O=C(Nc1ccccc1C(=O)NCc1ccco1)Nc1cccc2ccccc12 | inconclusive: 100 µM [inhibitor, partial curve, poor fit] | 
34 | O=c1c2ccccc2oc2cc(C#CC3(O)CCCCC3)ccc12 | inconclusive: 112 µM [inhibitor, partial curve, poor fit] | 
35 | COc1cccc(N=C2SC(C(=O)Nc3ccc(F)cc3)CC(=O)N2C)c1 (stereo not given) | inconclusive: 112 µM [inhibitor, partial curve, poor fit] | 
36 | COC(=O)C1=C(C)N(Cc2ccc(C)cc2)C(=O)/C1=C\c1ccc(O)c(OC)c1 | inconclusive: 89.1 µM [inhibitor, single point] | 
37 | C[C@H](CO)N1C[C@H](C)[C@@H](CN(C)C(=O)Nc2ccccc2)Oc2c(NC(=O)Nc3ccc(C(F)(F)F)cc3)cccc2C1=O | inconclusive: 63.1 µM [inhibitor, partial curve, poor fit] | 
38 | CC(C)CC1Nc2ncnc(N3CCOCC3)c2N(Cc2ccc(Br)cc2)C1=O (stereo not given) |  | inactive: 0.69%
39 | c1ccc2c(c1)ncn2CCCCOc1ccc2c(c1)CCC2 |  | inactive: -5.96%
40 | COc1ccccc1-c1noc(-c2ccccc2C(=O)Nc2ccccc2)n1 | inconclusive: 89.1 µM [inhibitor, single point] | 
41 | COc1cc(/C=N/NC(=O)c2ccc(CSc3nc4ccccc4[nH]3)cc2)ccc1O | inconclusive: 35.5 µM [inhibitor, partial curve] | 
42 | Cc1nc2nc(SCC(N)=O)[nH]c2cc1Br |  | inactive: 1.75%
43 | COc1ccc(CCNC(=O)Cc2ccc(Cl)cc2)cc1OC |  | inactive: 1.44%
44 | COC(=O)c1ccc(CSc2nnc(Nc3ccc(C)cc3)s2)o1 | inconclusive: 178 µM [inhibitor, partial curve, poor fit] | 

Row | SMILES | Potency | activity change, negative = inhibition
45 | Cc1ccc(N2C(=O)CC(n3nc(C)cc3C)C2=O)cc1 (stereo not given) |  | inactive: 1.24%
46 | COC(=O)C1=C(C)N(Cc2ccccc2)C(=NCc2cccc(C(F)(F)F)c2)N[C@H]1c1cccc(F)c1 | inconclusive: 70.8 µM [inhibitor, single point] | 
47 | Cc1ccc(/C=C/c2ccc(N(C)C)cc2)[n+](C)c1 | inconclusive: 112 µM [inhibitor, partial curve, poor fit] | 
48 | CCCNc1ccc(C(=O)OCC)cc1[N+](=O)[O-] | inconclusive: 708 µM [inhibitor, partial curve, poor fit] | 
49 | O=C(NCN1C(=O)C2C3C=CC(C3)C2C1=O)Nc1ccccc1O (stereo not given) |  | inactive: 2.61%
50 | Nc1ccc2ccccc2c1N=Nc1ccccc1 | inconclusive: 89.1 µM [inhibitor, single point] | 
51 | CC(=O)NCCC1CCN(C(=O)c2cc(COc3ccc(C)nc3)on2)CC1 |  | inactive: 0.122%
52 | CC(=O)NC(NC(=S)Nc1ccc(N=Nc2ccccc2)cc1)C(Cl)(Cl)Cl (stereo not given) | inconclusive: 251 µM [inhibitor, partial curve, poor fit] | 
53 | COc1ccccc1N(CC(O)COc1c(C)cc(C)cc1C)S(=O)(=O)c1ccccc1 (stereo not given) |  | inactive: -7.36%
54 | NC(=O)c1cc(S(=O)(=O)N2CCN(c3ccc([N+](=O)[O-])cc3)CC2)cs1 | inconclusive: 112 µM [inhibitor, partial curve, poor fit] | 
55 | Cc1cccc2c(C(=O)N3CCN(c4ccccn4)CC3)cc(-c3cccc(Br)c3)nc12 | inconclusive: 251 µM [inhibitor, partial curve, poor fit] | 
56 | C/C(=N\Nc1cc(Cl)nc(C)n1)c1ccc(Cl)c(Cl)c1 | inconclusive: 2000 µM [inhibitor, partial curve, poor fit] | 
57 | O=S(=O)(c1cc(O)ccc1O)c1cccc2c(S(=O)(=O)c3cc(O)ccc3O)cccc12 | inconclusive: 112 µM [inhibitor, single point] | 
58 | COc1ccc(CCN(C)CCCN2CC(c3ccccc3)CC2=O)cc1OC (stereo not given) |  | inactive: 3.99%
59 | Cc1ccc(NCC(=O)N=Nc2c(O)[nH]c3ccc([N+](=O)[O-])cc23)cc1 | inconclusive: 251 µM [inhibitor, partial curve, poor fit] | 
60 | CCO/N=C(\C)c1c(O)c(CC)c(-c2ccccc2)n(-c2ccccc2)c1=O | inconclusive: 112 µM [inhibitor, partial curve, poor fit] | 
61 | O=C(Nc1ccc(Br)cc1)c1cccc(OC(=S)N2CCOCC2)c1 | inconclusive: 89.1 µM [inhibitor, single point] | 
62 | Cc1cccc(Nc2nc(N)c([N+](=O)[O-])c(NCc3ccccc3)n2)c1 | inconclusive: 89.1 µM [inhibitor, single point] | 
63 | C/C(=N\N=C(/N)SC1CC(=O)N(c2ccc(Cl)cc2)C1=O)c1cccs1 (stereo not given) | inconclusive: 79.4 µM [inhibitor, partial curve, poor fit] | 
64 | Nc1nonc1-n1nnc(C(=O)N/N=C/c2ccccc2)c1CN1CCc2ccccc21 | inconclusive: 1120 µM [inhibitor, partial curve, poor fit] | 
65 | O=[N+]([O-])c1cccc(/C=N/Nc2nc(NCc3ccccc3)nc(N3CCOCC3)n2)c1O | inconclusive: 63.1 µM [inhibitor, partial curve] | 
